Assay results: PubChem BioAssay AID504333 (National Center for Advancing Translational Sciences (NCATS), 2011)
Several values for one entry are separate records, joined by “and”; a condition that tells them apart may be missing. Equal entries are not always repeated. The campaign covered roughly 360,000 compounds. About 16,000 (4.4%) were called active. This list was built around the results that the source calls inconclusive (neither active nor inactive); the mix of calls is not that of the screen. Calls follow the shape of the dose curve; as a rule, active = well fitted inhibition curve with a large enough effect; inconclusive = small, poorly fitted or top-dose-only effect; inactive = no such curve, though single readings can be large or run the other way. Potencies of inconclusive entries are doubtful fits and often do not repeat.

Biological target: Bromodomain adjacent to zinc finger domain protein 2B (Homo sapiens) (UniProt Q9UIF8)
Test: qHTS Assay for Inhibitors of BAZ2B; also: nearly all actives have a fitted effect of over 60% in size
Settings: AlphaScreen BAZ2B-H3K14Ac peptide displacement; series mostly up to 114 µM
Summary of the method: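 BAZ2B (50 nM) with biotin-H3(5-23)K14Ac peptide (50 nM) in PBS pH 7.4, 0.01% Tween-20, preformed 30 min, then compound 30 min at room temperature; top concentration 110uM. AlphaScreen streptavidin donor/nickel chelate acceptor beads (10 ug/mL final), 20 min dark, signal read.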
Potency is read from the fitted curve at half-maximal effect; tags tell the direction and shape of the fitted curve.

Chain of UniProt Q9UIF8 (Q9UIF8 whole entry, looked up, the tested form may be a part): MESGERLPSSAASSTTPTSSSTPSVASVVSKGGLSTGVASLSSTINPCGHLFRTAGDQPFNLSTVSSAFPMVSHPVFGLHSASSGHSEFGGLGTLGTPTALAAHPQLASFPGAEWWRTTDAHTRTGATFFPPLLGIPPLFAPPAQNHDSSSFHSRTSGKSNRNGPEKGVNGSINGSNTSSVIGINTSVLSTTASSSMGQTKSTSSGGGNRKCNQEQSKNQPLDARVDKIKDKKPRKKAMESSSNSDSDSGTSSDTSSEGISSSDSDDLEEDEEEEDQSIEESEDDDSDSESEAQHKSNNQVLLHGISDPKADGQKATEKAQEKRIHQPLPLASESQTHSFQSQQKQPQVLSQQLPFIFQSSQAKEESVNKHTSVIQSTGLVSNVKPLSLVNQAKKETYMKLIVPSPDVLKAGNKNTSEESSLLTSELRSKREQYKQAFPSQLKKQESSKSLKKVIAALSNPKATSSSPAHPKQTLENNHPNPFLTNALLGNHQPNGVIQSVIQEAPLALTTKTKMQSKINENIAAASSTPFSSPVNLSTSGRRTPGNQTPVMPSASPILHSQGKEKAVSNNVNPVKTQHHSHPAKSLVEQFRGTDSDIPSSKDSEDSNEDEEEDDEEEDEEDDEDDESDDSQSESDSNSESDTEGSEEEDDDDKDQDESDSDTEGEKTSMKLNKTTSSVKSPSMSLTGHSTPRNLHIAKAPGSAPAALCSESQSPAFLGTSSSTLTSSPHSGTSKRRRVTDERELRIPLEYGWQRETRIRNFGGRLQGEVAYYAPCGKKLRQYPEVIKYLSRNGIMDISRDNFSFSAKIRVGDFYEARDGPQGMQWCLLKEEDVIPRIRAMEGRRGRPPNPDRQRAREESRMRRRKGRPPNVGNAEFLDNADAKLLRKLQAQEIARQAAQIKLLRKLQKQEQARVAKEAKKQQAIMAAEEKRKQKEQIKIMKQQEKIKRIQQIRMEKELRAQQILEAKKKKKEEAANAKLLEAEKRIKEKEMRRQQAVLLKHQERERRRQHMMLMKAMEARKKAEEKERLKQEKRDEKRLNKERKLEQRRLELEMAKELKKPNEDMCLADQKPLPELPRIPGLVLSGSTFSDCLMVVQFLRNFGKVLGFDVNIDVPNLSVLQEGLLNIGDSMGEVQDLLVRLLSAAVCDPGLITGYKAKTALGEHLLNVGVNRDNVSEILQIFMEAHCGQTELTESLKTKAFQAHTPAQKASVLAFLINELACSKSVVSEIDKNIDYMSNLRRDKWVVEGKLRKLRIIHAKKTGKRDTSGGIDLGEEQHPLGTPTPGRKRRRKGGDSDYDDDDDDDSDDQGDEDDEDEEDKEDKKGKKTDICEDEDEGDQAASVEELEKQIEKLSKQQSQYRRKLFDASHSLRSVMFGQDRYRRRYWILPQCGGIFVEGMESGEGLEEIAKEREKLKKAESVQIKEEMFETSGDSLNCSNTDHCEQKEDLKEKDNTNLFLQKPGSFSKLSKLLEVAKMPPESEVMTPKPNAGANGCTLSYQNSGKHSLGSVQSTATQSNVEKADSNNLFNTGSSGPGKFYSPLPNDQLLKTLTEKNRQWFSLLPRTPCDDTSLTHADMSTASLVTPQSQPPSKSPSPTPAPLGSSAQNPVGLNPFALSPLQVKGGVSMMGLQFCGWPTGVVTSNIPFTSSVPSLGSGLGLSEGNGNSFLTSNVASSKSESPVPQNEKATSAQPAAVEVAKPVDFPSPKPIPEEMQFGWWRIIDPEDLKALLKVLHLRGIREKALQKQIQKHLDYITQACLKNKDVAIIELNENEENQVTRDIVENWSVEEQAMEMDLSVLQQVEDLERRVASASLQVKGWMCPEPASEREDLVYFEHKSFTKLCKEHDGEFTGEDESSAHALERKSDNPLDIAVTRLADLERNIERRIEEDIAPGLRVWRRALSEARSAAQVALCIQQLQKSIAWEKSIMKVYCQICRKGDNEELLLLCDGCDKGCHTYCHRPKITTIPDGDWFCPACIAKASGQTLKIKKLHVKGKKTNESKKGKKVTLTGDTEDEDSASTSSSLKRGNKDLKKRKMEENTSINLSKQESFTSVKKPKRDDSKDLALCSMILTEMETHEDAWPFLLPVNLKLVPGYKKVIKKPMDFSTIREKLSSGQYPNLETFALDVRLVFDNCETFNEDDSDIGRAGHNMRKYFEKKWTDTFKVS

| Compound | Potency |
| --- | --- |
| CCCCc1ccc(N=N/C(C(=O)Nc2ccc(NC(C)=O)cc2OC)=C(/C)O)cc1 | inconclusive: 39.8 µM [inhibitor, partial curve] |
| Cn1c(=O)c2c(nc(NC(Cc3ccccc3)C(=O)O)n2Cc2ccccc2)n(C)c1=O (centres undefined) | inconclusive: 89.1 µM [inhibitor, single point] |
| CC1=C(C(=O)Nc2cccc(C(=O)N3CCN(c4cccc(C(F)(F)F)c4)CC3)c2)SCCO1 | inconclusive: 44.7 µM [inhibitor, partial curve] |
| O=C(Cc1ccc(F)cc1)Nc1cccc(-c2cn3c(n2)SCC3)c1 | inconclusive: 56.2 µM [inhibitor, partial curve] |
| COCCOC(=O)/C(C#N)=C/c1cn(Cc2ccccc2)nc1-c1cccnc1 | active: 79.4 µM |
| O=C(NCCc1c[nH]c2ccccc12)c1ccco1 | inconclusive: 89.1 µM [inhibitor, single point] |
| CS(=O)(=O)N(Cc1cccc(CN(C(C(=O)O)c2ccccc2)S(C)(=O)=O)c1)C(C(=O)O)c1ccccc1 (centres undefined) | inconclusive: 89.1 µM [inhibitor, single point] |
| O=C(CSc1nc(Nc2ccccc2)nc(N2CCOCC2)n1)N1CCc2ccccc21 | inconclusive: 79.4 µM [inhibitor, single point] |
| COc1ccc(C2CC(=O)c3cc(-c4nc(-c5cccc([N+](=O)[O-])c5)cs4)c(=O)n(-c4ccccc4C)c3C2)cc1 (centres undefined) | inconclusive: 89.1 µM [inhibitor, single point] |
| CN(C)C(CNc1ccc(C(F)(F)F)cc1[N+](=O)[O-])c1ccccc1 (centres undefined) | active: 8.91 µM |
| COc1ccc(NC(=O)c2ccc(CN3CCc4ccccc4C3)cc2)cc1OC | inactive |
| COc1ccc(OCC(=O)Nc2ccccc2Cl)cc1 | active: 50.1 µM |
| COc1ccccc1N1CCN(/N=C/c2ccc(O)cc2O)CC1 | inconclusive: 50.1 µM [inhibitor, partial curve] |
| CN(C)Cc1ccccc1COc1ccccc1 | inconclusive: 89.1 µM [inhibitor, single point] |
| CC1CN(C(=O)c2cc(-c3ccc(Cl)s3)nc3ccccc23)CC(C)O1 (centres undefined) | inactive |
| CCOc1ccc(OCC(=O)NCCS(=O)(=O)N2CCN(c3ccc(OC)cc3)CC2)cc1 | inactive |
| CCCC(=O)Nc1sc2c(c1C(=O)OC)C(C(=O)OC)CC2 (centres undefined) | inactive |
| C/C=C(\C)CN1CCN(c2cc(C)ccc2C)CC1 | inactive |
| CCCCn1c(-c2nn(C)c(C)c2Cl)n[nH]c1=S | inactive |
| CCOc1ccc(NC(=O)CN2CCN(CC(=O)c3ccc(OC)c(OC)c3)CC2)cc1 | inactive |
| Cc1ccc(N2C(=O)CC(Sc3ncn[nH]3)C2=O)cc1C (centres undefined) | inconclusive: 79.4 µM [inhibitor, partial curve] |
| Cc1cc(=O)[nH]c(N/N=C/c2c(O)n(-c3ccccc3)c(=O)c3ccccc23)n1 | active: 39.8 µM |

| Compound | Potency |
| --- | --- |
| O=C(Nc1nc(-c2ccccn2)cs1)c1ccc(F)c(S(=O)(=O)N2CCOCC2)c1 | active: 28.2 µM |
| CC(=O)Nc1ccc(CN2CCCCCCC2)cc1 | inconclusive: 89.1 µM [inhibitor, single point] |
| COc1cc([N+](=O)[O-])ccc1NC(=S)NNC(=O)c1ccc2c(c1)OCO2 | inconclusive: 25.1 µM [inhibitor, partial curve] |
| CCCCn1c(=N)n(CC(=O)C(C)(C)C)c2ccccc21 | inconclusive: 79.4 µM [inhibitor, single point] |
| CN1CCN(/N=C/c2ccc(OCc3ccccc3)cc2)CC1 | inconclusive: 44.7 µM [inhibitor, partial curve] |
| CC(=O)N1c2ccc(S(=O)(=O)N3CCCCC3)cc2CC1C(=O)NCc1ccc(N(C)C)cc1 (centres undefined) | inactive |
| Cc1ccc(-n2ccnc(NCc3cccs3)c2=O)cc1C | inconclusive: 50.1 µM [inhibitor, single point] |
| CCOC(=O)C1(CCCc2ccccc2)CCN(Cc2nccn2CC)CC1 | inconclusive: 56.2 µM [inhibitor, partial curve] |
| COc1cccc(NS(=O)(=O)c2ccc3[nH]cc(C(=O)NCCc4ccc(C)cc4)c(=O)c3c2)c1 | inconclusive: 89.1 µM [inhibitor, single point] |
| C[c-]1[c-](C)[c-](C)[c-](C)[c-]1C.[Fe].c1cc2nccc(N3CCCC3)[c-]2c1 (centres undefined) | active: 35.5 µM and active: 39.8 µM |
| Cc1ccccc1CC1(CO)CCCN(Cc2c(C)nn(C)c2Cl)C1 (centres undefined) | inconclusive: 89.1 µM [inhibitor, single point] |
| O=C(COCc1cc(-c2ccc3c(c2)OCO3)on1)N1CCN(c2cccc(C(F)(F)F)c2)CC1 | inactive and inconclusive: 70.8 µM [inhibitor, single point] |
| CC1(C)Cc2cccc(OCC(O)CNCc3ccccn3)c2O1 (centres undefined) | inconclusive: 89.1 µM [inhibitor, single point] |
| CN(C)CCN(C(=O)c1ccc(S(=O)(=O)N(C)c2ccccc2)cc1)c1nc2cc3c(cc2s1)OCO3 | active: 39.8 µM |
| COc1ccc(NC(=O)CC2Nc3cc(C)c(C)cc3NC2=O)c([N+](=O)[O-])c1 (centres undefined) | inconclusive: 20 µM [inhibitor, full curve, poor fit] |
| C[C@@H](C(=O)NCc1ccco1)N1C(=O)N2CCc3c([nH]c4ccccc34)[C@@]2(C)C1=O | active: 50.1 µM |
| CN(C)S(=O)(=O)N(CC(=O)NCCSc1ccc(Cl)cc1)c1ccccc1 | inactive |
| CCC(C(=O)Nc1cc(OC)ccc1OC)n1nc(-c2ccccc2)c2c(c1=O)CCCC2 (centres undefined) | inconclusive: 7.94 µM [inhibitor, full curve] |
| Cn1c2ccccc2c2c(C(=O)N3CCN(c4cccc(C(F)(F)F)c4)CC3)cn(C3CCCCC3)c(=O)c21 | inactive |
| Cc1cc(C(=O)NN=C2CCCCCC2)c(C)o1 | inactive |
| CCCN1CCCc2cc(CN(CCCN3CCOCC3)C(=O)Nc3ccc(OCC)cc3)ccc21 | active: 39.8 µM |
| COC(=O)c1nc(N)sc1-c1ccc(OC)cc1 | inactive |
